# From the supplement of paper PMC8728848
# Some of the results follow.
# B1: Tamarinin (protein)
# chain: CDDSARAGNIVVYWGQGGSDNSEGSLKEACKSGHYNMIVLQQLIVYDDGRDPDLNLGAHCSDCTKLEEQIKYCQNKDIKILLQIGQVVPTQEDVKDVTKNLSEYLLKNFFSGKSGPLGEVYLNGIDIASVPEGNNLKFDELVEALNDSSTERRIYLSASPLCVYPDYYLNKAIQTEKLDFLFVQFFYQNPCIYTEGNPENLFEAMKTWTKNVPESMIFMALPATPNLDGYIPPRVLNKEILPAVSEASNFAGVMIFDRYFDRFRKYSSKIK
# Legend:
# Experiment in all cases: glycan array binding signal (z-score within array); higher = stronger binding
# Settings in all cases: glycan notation: IUPAC condensed, linker removed
# Neu5Ac(a2-8)Neu5Ac = target: Neu5Ac(a2-8)Neu5Ac
# Outline: (§1)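 Glycan array data were curated from 3228 arrays in the Consortium for Functional Glycomics database and kept only where the protein sequence was available. Glycan names were converted to IUPAC-condensed notation, and columns mapping to the same glycan were averaged. The binding signal is a within-array Z-score, averaged across arrays of the same protein sequence at different concentrations or buffers and across linkers. Negative Z-scores can be read as non-binding.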
# [1] = target: Neu5Ac(a2-8)Neu5Ac(a2-3)Gal(b1-3)GalNAc(b1-4)[Neu5Ac(a2-3)]Gal(b1-4)Glc
# Outline: as §1
# [2] = target: Neu5Ac(a2-8)Neu5Ac(a2-3)Gal(b1-3)GalNAc(b1-4)[Neu5Ac(a2-8)Neu5Ac(a2-3)]Gal(b1-4)Glc
# Outline: as §1
# [3] = target: Neu5Ac(a2-8)Neu5Ac(a2-3)Gal(b1-4)Glc
# Outline: as §1
# [4] = target: Neu5Ac(a2-8)Neu5Ac(a2-3)Gal(b1-4)GlcNAc
# Outline: as §1
# [5] = target: Neu5Ac(a2-8)Neu5Ac(a2-3)[Gal(b1-3)GalNAc(b1-4)]Gal(b1-4)Glc
# Outline: as §1
# [6] = target: Neu5Ac(a2-8)Neu5Ac(a2-3)[GalNAc(b1-4)]Gal(b1-4)Glc
# Outline: as §1
# [7] = target: Neu5Ac(a2-8)Neu5Ac(a2-8)Neu5Ac
# Outline: as §1
# [8] = target: Neu5Ac(a2-8)Neu5Ac(a2-8)Neu5Ac(a2-3)Gal(b1-4)Glc
# Outline: as §1
# [9] = target: Neu5Ac(a2-8)Neu5Ac(a2-8)Neu5Ac(a2-3)[Gal(b1-3)GalNAc(b1-4)]Gal(b1-4)Glc
# Outline: as §1
# [10] = target: Neu5Ac(a2-8)Neu5Ac(a2-8)Neu5Ac(a2-3)[GalNAc(b1-4)]Gal(b1-4)Glc
# Outline: as §1
# [11] = target: Neu5Ac(a2-8)Neu5Ac(a2-8)Neu5Ac(a2-8)Neu5Ac(a2-3)[GalNAc(b1-4)]Gal(b1-4)Glc
# Outline: as §1
# [12] = target: Neu5Ac(a2-8)Neu5Gc(a2-3)Gal(b1-4)GlcNAc
# Outline: as §1
# [13] = target: Neu5Ac(b2-6)Gal(b1-4)GlcNAc
# Outline: as §1
# Neu5Ac(b2-6)GalNAc = target: Neu5Ac(b2-6)GalNAc
# Outline: as §1
# [14] = target: Neu5Ac9Ac(a2-3)Gal(b1-3)GlcNAc
# Outline: as §1
# [15] = target: Neu5Ac9Ac(a2-3)Gal(b1-4)GlcNAc
# Outline: as §1
# [16] = target: Neu5Ac9Ac(a2-6)Gal(b1-4)GlcNAc
# Outline: as §1
# [17] = target: Neu5Gc(a2-3)Gal(b1-3)GlcNAc
# Outline: as §1
# [18] = target: Neu5Gc(a2-3)Gal(b1-3)[Fuc(a1-4)]GlcNAc
# Outline: as §1
# Neu5Gc(a2-3)Gal(b1-4)Glc = target: Neu5Gc(a2-3)Gal(b1-4)Glc
# Outline: as §1
# [19] = target: Neu5Gc(a2-3)Gal(b1-4)GlcNAc
# Outline: as §1
# [20] = target: Neu5Gc(a2-3)Gal(b1-4)GlcNAc(b1-3)Gal(b1-4)GlcNAc(b1-2)Man(a1-3)[Neu5Gc(a2-3)Gal(b1-4)GlcNAc(b1-3)Gal(b1-4)GlcNAc(b1-2)Man(a1-6)]Man(b1-4)GlcNAc(b1-4)GlcNAc
# Outline: as §1
# [21] = target: Neu5Gc(a2-3)Gal(b1-4)[Fuc(a1-3)]GlcNAc
# Outline: as §1
# [22] = target: Neu5Gc(a2-6)Gal(b1-4)GlcNAc
# Outline: as §1
# Neu5Gc(a2-6)GalNAc = target: Neu5Gc(a2-6)GalNAc
# Outline: as §1
# [23] = target: Neu5Gc(a2-8)Neu5Ac(a2-3)Gal(b1-4)GlcNAc
# Outline: as §1
# [24] = target: Neu5Gc(a2-8)Neu5Gc(a2-3)Gal(b1-4)GlcNAc
# Outline: as §1
# [25] = target: Neu5Gc(a2-8)Neu5Gc(a2-3)Gal(b1-4)GlcNAc(b1-3)Gal(b1-4)GlcNAc
# Outline: as §1
# [26] = target: Neu5Gc(a2-8)Neu5Gc(a2-6)Gal(b1-4)GlcNAc
# Outline: as §1
# [27] = target: Neu5Gc(b2-6)Gal(b1-4)GlcNAc
# Outline: as §1
binder,measurement,setting,value
B1,glycan array binding signal (z-score),Neu5Ac(a2-8)Neu5Ac,-0.281
same,glycan array binding signal (z-score),[1],0.219
same,glycan array binding signal (z-score),[2],-0.156
same,glycan array binding signal (z-score),[3],-0.395
same,glycan array binding signal (z-score),[4],-0.453
same,glycan array binding signal (z-score),[5],-0.04
same,glycan array binding signal (z-score),[6],-0.42
same,glycan array binding signal (z-score),[7],-0.406
same,glycan array binding signal (z-score),[8],-0.446
same,glycan array binding signal (z-score),[9],-0.059
same,glycan array binding signal (z-score),[10],-0.405
same,glycan array binding signal (z-score),[11],-0.394
same,glycan array binding signal (z-score),[12],-0.457
same,glycan array binding signal (z-score),[13],-0.463
same,glycan array binding signal (z-score),Neu5Ac(b2-6)GalNAc,-0.417
same,glycan array binding signal (z-score),[14],-0.189
same,glycan array binding signal (z-score),[15],-0.335
same,glycan array binding signal (z-score),[16],-0.342
same,glycan array binding signal (z-score),[17],0.082
same,glycan array binding signal (z-score),[18],-0.116
same,glycan array binding signal (z-score),Neu5Gc(a2-3)Gal(b1-4)Glc,0.043
same,glycan array binding signal (z-score),[19],-0.078
same,glycan array binding signal (z-score),[20],-0.36
same,glycan array binding signal (z-score),[21],-0.286
same,glycan array binding signal (z-score),[22],-0.203
same,glycan array binding signal (z-score),Neu5Gc(a2-6)GalNAc,-0.025
same,glycan array binding signal (z-score),[23],-0.475
same,glycan array binding signal (z-score),[24],-0.479
same,glycan array binding signal (z-score),[25],-0.41
same,glycan array binding signal (z-score),[26],-0.477
same,glycan array binding signal (z-score),[27],-0.329
